In PMC4336329 (PLoS ONE, 2015):
The whole screen tested about 310,000 compounds, of which about 2,200 (0.71%) showed an effect of 50% or more. Effects have a minus sign here. The list shows a part of the results.

target: human ether-à-go-go-related gene (hERG) potassium channel (human, UniProt Q12809); test: primary screen, population patch clamp on CHO cells stably expressing hERG
Sequence (Q12809 whole entry, looked up): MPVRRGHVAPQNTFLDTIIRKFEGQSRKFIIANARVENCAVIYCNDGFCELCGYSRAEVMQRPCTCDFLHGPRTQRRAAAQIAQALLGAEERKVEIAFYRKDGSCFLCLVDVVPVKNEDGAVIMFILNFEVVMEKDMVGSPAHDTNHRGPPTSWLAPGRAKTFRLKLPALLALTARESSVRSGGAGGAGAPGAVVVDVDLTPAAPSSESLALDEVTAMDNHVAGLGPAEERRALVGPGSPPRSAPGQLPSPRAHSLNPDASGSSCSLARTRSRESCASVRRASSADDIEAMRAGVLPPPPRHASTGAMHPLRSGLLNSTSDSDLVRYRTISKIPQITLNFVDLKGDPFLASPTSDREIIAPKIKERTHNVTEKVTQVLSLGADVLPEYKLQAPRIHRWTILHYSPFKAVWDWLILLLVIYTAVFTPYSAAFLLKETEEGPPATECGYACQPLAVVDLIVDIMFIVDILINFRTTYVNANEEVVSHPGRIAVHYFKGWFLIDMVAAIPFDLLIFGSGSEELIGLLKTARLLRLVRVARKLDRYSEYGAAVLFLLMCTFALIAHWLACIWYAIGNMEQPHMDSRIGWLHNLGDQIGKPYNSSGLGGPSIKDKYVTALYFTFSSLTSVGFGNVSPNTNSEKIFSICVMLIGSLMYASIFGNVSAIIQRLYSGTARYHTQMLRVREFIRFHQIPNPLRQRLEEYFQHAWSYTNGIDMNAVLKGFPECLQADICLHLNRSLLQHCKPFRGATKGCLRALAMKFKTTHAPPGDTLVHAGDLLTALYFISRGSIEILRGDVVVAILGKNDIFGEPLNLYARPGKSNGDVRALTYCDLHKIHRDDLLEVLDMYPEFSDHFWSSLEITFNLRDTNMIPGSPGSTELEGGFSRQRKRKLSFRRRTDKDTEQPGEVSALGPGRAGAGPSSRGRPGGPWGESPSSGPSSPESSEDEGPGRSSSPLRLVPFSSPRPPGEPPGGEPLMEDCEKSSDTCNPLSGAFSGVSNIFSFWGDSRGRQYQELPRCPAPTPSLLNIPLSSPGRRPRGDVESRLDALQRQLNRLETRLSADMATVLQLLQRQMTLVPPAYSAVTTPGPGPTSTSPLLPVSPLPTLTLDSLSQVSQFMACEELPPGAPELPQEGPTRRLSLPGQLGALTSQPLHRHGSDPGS

In order of falling “hERG current change (%, negative = inhibition) at 1uM” value:
1. COc1ccc(NC(=S)NNC(=O)c2ccc(S(=O)(=O)N3CCOCC3)cc2)cc1  25.4%
2. O=C(Nc1ccc(F)cc1)N1CC2CC(C1)c1cccc(=O)n1C2 (stereo not drawn)  18.5%
3. O=C1OC(c2ccccc2)/C(=C(/O)c2ccc(Cl)cc2)C1=O (stereo not drawn)  18%
4. CN(C(=O)COC(=O)c1ccc2c(c1)OCO2)c1c(N)n(Cc2ccccc2)c(=O)[nH]c1=O  17.7%
5. CSc1ccccc1NC(=O)CN(C)CC(=O)c1c(C)[nH]c2ccccc12  17.7%
6. CCc1cccc(NC(=O)NC2CCCCC2)c1  17.7%
7. COc1cc(C(=O)NCc2nnc(SCC(=O)N3CCOCC3)o2)cc(OC)c1OC  16.7%
8. O=C(O)/C=C\C(=O)Nc1ccccc1C(=O)NC1CCCCC1  16.4%
9. O=C(N/N=C/c1ccc(C(=O)O)cc1)C(=O)N1CCCCCC1  16.4%
10. Cn1c(=NC(=O)CN2C(=O)C3CC=CCC3C2=O)sc2ccccc21 (stereo not drawn)  15.7%
11. CC(/C=C/c1ccc2c(c1)OCO2)=N/NC(=O)CNc1ccc(C)cc1  15.7%
12. COC(=O)N[C@H](c1ccccc1)[C@@]1(C)C[C@@H]1[C@@H](C)C(=O)Nc1ccc2ccccc2c1  15.5%
13. CN(c1cccc2cccnc12)S(=O)(=O)c1ccccc1  15.2%
14. Cc1ccc2[nH]c(-c3ccccc3)cc(=O)c2c1  15.1%
15. Cc1cc(C)nc(N2CCN(C(=O)CCC(=O)Nc3nnc(C(C)C)s3)CC2)n1  15%
16. CC(=O)Oc1ccc(/C=C2/Oc3ccccc3C2=O)cc1  14.5%
17. COc1cccc(C2/C(=C(\O)c3ccc4c(c3)OCCO4)C(=O)C(=O)N2CCCN2CCOCC2)c1OC (stereo not drawn)  14.2%
18. CN1C(=O)/C(=C/c2ccc(Cl)s2)C(=O)NC1=S  14.1%
19. Cc1ccc(SCC(=O)N(Cc2nc(-c3ccccc3)no2)C(C)C)cc1  14%
20. COC(=O)N1C(=O)[C@](c2ccsc2)(C(C)C)N1C(=O)OC  13.8%
21. Cn1nccc1C(=O)Nn1cnnc1  13.7%
22. COc1ccc(S(=O)(=O)Oc2ccccc2C(=S)N2CCOCC2)cc1  13.5%
23. N/C(=N\N=C\c1ccc([N+](=O)[O-])cc1)c1nonc1N  13.3%
24. COc1ccc2[nH]c3c(N4CCc5ccccc5C4)ncnc3c2c1  13%
25. CCOC(=O)C1=C(C)NC(C)=C(C(=O)OC)C1c1cccc(Cl)c1Cl (stereo not drawn)  12.4%
26. COc1cc(C(=O)Nc2cc(C(F)(F)F)ccc2Cl)cc(OC)c1OC  12.2%
27. FC(F)(F)c1nnc2ccc(N3CCOCC3)nn12  11.9%
28. CC(NC(=O)c1ccco1)c1nc(-c2ccccc2)no1 (stereo not drawn)  11.9%
29. CC(C)(C)c1ccccc1OCC(=O)NCc1ccccc1  11.5%
30. Cn1nc(C(F)(F)F)cc1C(=O)Nc1ccc(Cl)cc1  11%
31. Cc1ccccc1-c1nnc(-c2ccc(Br)cc2)o1  11%
32. CC(C)Cc1c(O)nc(SCC(=O)N2CCCCCC2)[nH]c1=O  10.9%
33. O=C(NCCCN1CCOCC1)c1cccc(NS(=O)(=O)c2ccc(Br)cc2)c1  10.7%
34. Cc1cccc(/C=N/NC(=O)c2ccc(NC(=O)c3ccccc3C)cc2)n1  10.5%
35. CCCCNC(=O)N1CCN(Cc2cccc(F)c2)CC1  10.5%
36. O=C1NC(Cc2c[nH]c3ccccc23)C(=O)N1Cc1ccccc1 (stereo not drawn)  10.2%
37. O=C(N/N=C1\CCCc2ccccc21)c1cccc(Br)c1  9.96%
38. CCOC(=O)COc1ccc2c(=O)cc(-c3ccccc3)oc2c1  9.94%
39. O=C1NCC(=O)N2C(c3ccccc3)c3[nH]c4ccccc4c3C[C@@H]12 (stereo partly drawn)  9.59%
40. CCOC(=O)C(Cc1ccccc1)C(=O)NCc1ccccc1 (stereo not drawn)  9.5%
41. CCCCCC(O)(c1ccc(OCC)cc1)C(CN1CCOCC1)c1ccccc1.Cl (stereo not drawn)  9.47%
42. Cc1ccc(S(=O)(=O)CCC(=O)OCC(=O)NCCc2ccccc2)cc1  9.42%
43. OCC[C@H]1C[C@@H](O)[C@H](O)[C@@]2(Cc3ccccc3CCO2)O1  9.28%
44. Cc1ccc(-c2csc(NC(=O)c3cc([N+](=O)[O-])ccc3N3CCOCC3)n2)cc1  9.16%
45. Cc1cccc(N(Cc2ccccc2)C(=O)c2ccc(CS(C)(=O)=O)cc2)c1  8.94%
46. COc1cccc(-c2nc(NC(C)(C)C)c3ccccc3n2)c1O  8.34%
47. CN(CC(=O)Nc1ccc(Cl)c(C(F)(F)F)c1)C(=O)c1cccnc1Sc1ccccc1  8.13%
48. O=c1[nH]cccc1-c1nc2cc(Cl)ccc2n1Cc1ccccc1  7.84%
49. COc1cccc2c1OC[C@@H](CO)[C@H]2N(C)C(=O)Nc1ccccc1  7.72%
50. COCCn1c(C(C)C)nc2ccccc21  7.6%
51. O=C1Nc2cc(C(=O)N3CCC4(CC3)OCCO4)ccc2NC1CSCc1cccc(F)c1 (stereo not drawn)  7.35%
52. O=C(Nc1ccccn1)C12CC3CC(C1)CC(C(=O)Nc1ccccn1)(C3)C2  7.16%
53. CCc1cc(=O)oc2c(C)c(OC(C)C(=O)N3CC[C@@]4(O)CCCC[C@H]4C3)ccc12 (stereo partly drawn)  6.75%
54. Fc1ccc(C2CC(c3ccco3)=Nc3ccccc3S2)cc1 (stereo not drawn)  6.59%
55. Cc1ccc(NC(=O)CSc2nc(-c3ccco3)nc3cc(=O)[nH]n23)c(Cl)c1  6.45%
56. CCOc1cc(/C=N/O)ccc1OCc1ccccc1F  6.36%
57. Cc1cc2cc(CNS(=O)(=O)c3ccccc3)ccc2n1C  6.19%
58. CCOc1ccccc1N1CCN(C(=O)c2ccc3c(c2)OCO3)CC1  5.9%
59. Cc1sc2ncn3cnnc3c2c1C  5.42%
60. O=C(Nc1nnc(COc2ccc(F)cc2)s1)c1cccs1  5.19%
61. N#CC1c2ccccc2C=CN1C(=O)c1ccccc1 (stereo not drawn)  5.08%
62. CCOc1ccc(CCNC(=O)COC(=O)c2cccc(S(=O)(=O)N3CCCCC3)c2)cc1OCC  4.91%
63. CCNC(=O)NC(=O)C(C)OC(=O)Cc1coc2cc3c(cc12)CCC3 (stereo not drawn)  4.16%
64. O=S(=O)(/N=C(/NNS(=O)(=O)c1ccccc1)c1ccccc1)c1ccccc1  4.07%
65. O=C(Nc1ccccc1C(=O)N1CCCCC1)c1cccs1  4.05%
66. O=C(CSc1n[nH]c(Cc2ccccc2)n1)Nc1ccccc1Br  3.87%
67. Cc1cccc(OCC(=O)Nc2ccc3c(c2)C(=O)NC3=O)c1  3.6%
68. CC(=O)N(c1nc(CCl)cs1)c1cccc(C)c1C  2.77%
69. Cc1ccc(-c2nc(NCCCO)c3ccccc3n2)cc1  2.19%
70. CCOC(=O)CC(=O)Nc1ccccc1C(=O)O  2.15%
71. Cc1nn(-c2ccccc2)c(C)c1NC(=O)COC(=O)c1cccc(OC(F)F)c1  1.97%
72. O=C(NCc1cccc(Br)c1)c1cc(-c2ccccc2)nn1CC1CC(c2cccnc2)=NO1 (stereo not drawn)  1.86%
73. COc1cc(NC(=O)c2ccco2)c(OC)cc1NC(=O)CCC(=O)Nc1cc(C)ccc1C  1.61%
74. CC(C)C(NC(=O)c1ccc(C(C)(C)C)cc1)C(=O)N1CCC(C(N)=O)CC1 (stereo not drawn)  1.28%
75. CCOC(=O)C1CCN(C(=O)CN(c2ccc3c(c2)OCO3)S(C)(=O)=O)CC1  1.2%
76. Cc1ccc(NC(=O)Cc2nnc(SCC(=O)Nc3ccccc3)n2C)cc1  0.67%
77. CC(=O)OCc1cc2cccc(C)c2[nH]c1=O  0.62%
78. COCCCn1c(SCC(=O)Nc2ccc(NC(=O)c3ccco3)c(OC)c2)nc2ccccc2c1=O  -0.148%
79. Cc1ccnc(NC(=O)CCC(=O)N(CC(=O)NCc2ccccc2)Cc2ccco2)c1  -0.181%
80. CC(C)Cc1cc(C(=O)O)c2ccccc2n1  -0.885%
81. CC1CCCN(CC(=O)Nc2ccc(S(=O)(=O)N3CCCCCC3)cc2)C1 (stereo not drawn)  -1.45%
82. O=C(NCCc1ccccc1F)C1CCC(=O)N(Cc2ccc(Cl)cc2)C1 (stereo not drawn)  -1.6%
83. CCN1C(=O)CC(c2cccnc2)=Nc2ccccc21  -1.98%
84. CC(NC(=O)C1CCN(C(=O)[C@@H]2Cc3ccccc3CN2)CC1)c1ccccc1 (stereo partly drawn)  -2.44%
85. CCc1cc(C(=O)NNC(=S)NCc2ccccc2)cs1  -3.36%
86. O=c1ccccn1Cc1c(F)cccc1Cl  -7.73%
87. Cc1cccc(OCc2nnc(SCn3nnc4ccccc4c3=O)o2)c1  -8.41%
88. C=CCn1c(SC(C)C#N)nc2sc(CC)cc2c1=O (stereo not drawn)  -8.92%
89. CC1CC(C)CN(C2CCCCC2NS(=O)(=O)c2ccc(Cl)cc2)C1 (stereo not drawn)  -12.7%
90. CN1CCN(CC(=O)Nc2ccccc2Sc2ccccc2)CC1.O=C(O)C(=O)O  -26.6%
